The source gives no read counts; variants with many changes may rest on few reads.
B1: CPEB3 Ribozyme (parent)
chain: UAACAGGGGGCCACAGCAGAAGCGUUCACGUCGCAGCCCCUGUCAGAUUCUGGUGAAUCUGCGAAUUCUGCUGUAUAUCUC

Variants of: B1
Experiment: self-cleavage, relative activity (ratio to wild type); higher = more cleavage; in vitro, sequencing
Summary of the method: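 Barcoded CPEB3 ribozyme mutants, produced by rounds of error-prone PCR, self-cleaved while being transcribed with T7 RNA polymerase for 5 hours at 37°C and during a subsequent 15 min DNase I step before EDTA was added. Sequencing of template-switched cDNA on Illumina gave cleaved and total reads, and DNA sequencing assigned barcodes to variants. Each variant's relative activity is its cleaved/total read fraction divided by the unmutated ribozyme's fraction, averaged across three batches. A variant needed a minimum of 5 reads.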

| Variant | self-cleavage |
| --- | --- |
| A5U A18U U67A | 0.35 |
| A5U A18U U67C A77C U78C | 0.18 |
| A5U A18U U76C | 0.55 |
| A5U A18U U78C | 0.48 |
| A5U A20G A21G C34U C44U A47G | 0.35 |
| A5U A20G A35G | 1.23 |
| A5U A20G A35U U80A | 0.64 |
| A5U A20G A45U U76C | 0.37 |
| A5U A20G A47G U54C A56U | 0.21 |
| A5U A20G C29U U31A U69A U76C A77G | 0.2 |
| A5U A20G G24C G33A A77U | 0.27 |
| A5U A20G U26A U31C U66C | 0.3 |
| A5U A20G U26C G30A U43C U80A | 0.52 |
| A5U A20G U31C | 0.65 |
| A5U A20G U51C | 0.9 |
| A5U A20G U54G U58A | 0.13 |
| A5U A20G U60C U67C U76A | 0.57 |
| A5U A20G U67C | 0.78 |
| A5U A20G U69C | 0.58 |
| A5U A20G U72C U76C U80C | 1.15 |
| A5U A20U A77G | 0.33 |

| Variant | self-cleavage |
| --- | --- |
| A5U A20U U31A C37U C59U | 0.09 |
| A5U A20U U31C | 0.4 |
| A5U A20U U31C G33A A57U | 0.25 |
| A5U A20U U41C U43C U54A U74C | 0.55 |
| A5U A21G A35G U69A U76C | 0.53 |
| A5U A21G A35U U66A | 0.09 |
| A5U A21G A45C | 0.62 |
| A5U A21G A56G G63A | 0.22 |
| A5U A21G C29U | 0.47 |
| A5U A21G C40U | 0.12 |
| A5U A21G C40U U48C U54C U69C C71U | 0.07 |
| A5U A21G U25A A45G G73A U78C | 0.14 |
| A5U A21G U25C A57G | 0.36 |
| A5U A21G U25C A77G | 0.17 |
| A5U A21G U26A A35G A45G U78C U80C | 0.97 |
| A5U A21G U41A G52U | 0.13 |
| A5U A21G U41A U49A | 0.09 |
| A5U A21G U41A U80C | 0.5 |
| A5U A21G U43A U74C | 1.14 |
| A5U A21G U43C U72A U76A | 0.45 |
| A5U A21G U49A C59U | 0.12 |

| Variant | self-cleavage |
| --- | --- |
| A5U A21U A28U U51G C62G | 0.24 |
| A5U A21U A56G A64G | 0.34 |
| A5U A21U A57G U58C U72A | 0.14 |
| A5U A21U C34U U48C U51C | 0.07 |
| A5U A21U U25C U58C U60A | 0.16 |
| A5U A21U U31A U67C U74C | 0.1 |
| A5U A21U U48A U54C U66C | 0.06 |
| A5U A21U U51C U60A | 0.27 |
| A5U A21U U78C | 0.32 |
| A5U A28G A35G A45U | 0.81 |
| A5U A28G A35U | 0.5 |
| A5U A28G A57G | 0.55 |
| A5U A28G C32A A64G U66C | 0.3 |
| A5U A28G C39A U41C | 0.59 |
| A5U A28G C50A A65G U72A | 0.19 |
| A5U A28G G33A G53A A57G | 0.1 |
| A5U A28G U41C U51G U58C U69A | 0.19 |
| A5U A28G U43A A57U A64G | 0.41 |
| A5U A28G U43G A64U | 0.14 |
| A5U A28G U49C U76C | 0.24 |
| A5U A28G U76A U78C | 0.61 |

| Variant | self-cleavage |
| --- | --- |
| A5U A28U C32U U49A C68A U74C A77G | 0.08 |
| A5U A35G A56U U60C | 0.53 |
| A5U A35G C37U | 1.23 |
| A5U A35G C59U | 1.23 |
| A5U A35G U54C U76C U80C | 1.29 |
| A5U A35G U69C | 1.03 |
| A5U A35U A57G | 0.65 |
| A5U A35U A65G U67A | 0.15 |
| A5U A35U C40U | 0.3 |
| A5U A35U U41C | 0.4 |
| A5U A35U U41C A56G G63A | 0.4 |
| A5U A35U U54G | 0.5 |
| A5U A35U U72A U80C | 0.94 |
| A5U A35U U72C | 0.76 |
| A5U A45G A47G U72A U76C | 0.44 |
| A5U A45G A56G A57G C81U | 0.39 |
| A5U A45G G52C A64U | 0.22 |
| A5U A45G U51A | 1 |
| A5U A45G U80C | 1.01 |
| A5U A45U A47G | 0.47 |
| A5U A45U G53A U72G | 0.69 |
